This is an account of results in the supplement of paper PMC11417369.

± gives the standard deviation of the averaged measurements. The list shows a part of the results.

The experiment relates to PfAP2-LT AP2 domain (GST-tagged). Nature of the experiment: gcPBM binding intensity (ln(normalized median fluorescence intensity)); higher = stronger DNA binding. In a few lines:
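An Agilent 4 × 180k array of primer-extended double-stranded 36-bp intergenic genomic probes, with negative controls, was incubated for 1 h with GST-tagged P. falciparum DNA-binding domains expressed in E. coli. Alexa488 anti-GST antibody detected bound protein, scanned at 488 nm. Binding intensity is the highest Masliner-normalised natural-log median intensity across replicate spots of either probe orientation.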
For the sequence “TATCATATAAAACATGCACACATATGTACTCTTATA [CACACA_site9249]”, the “gcPBM binding intensity (ln)” value was determined as 9.13 ± 0.35.

For the sequence “AAAAAATAAGATTGTACACACATAAATTCTTTGTCA [CACACA_site2089]”, the “gcPBM binding intensity (ln)” value was 8.9 ± 0.48. In the case of “CGTTCTATTTAGATATGTACTTAAATATATGATCAT [XGTACX_site2936]” it was 8.73 ± 0.37; in that of “TTAATAAAAATATATCCACACACATATATATATATG [CACACA_site8091]”, 9.16 ± 0.3; in that of “ATCATTTATTTTTTAAAAGTATATATATATATATAT [CACACA_negctrl_site220]”, 9.35 ± 0.11. In the case of “TTTTTTTTTTTTTAAATAATCATACATGTGAAATTG [GTGCAC_negctrl_site328]” it was 8.27 ± 0.42; in that of “AAATATAAGTTTTATTGTACATTATATAGCATATTT [XGTACX_site6618]”, 8.71 ± 0.36. Regarding “ACATATTATAACATATGTACATATATATATATATAA [XGTACX_site5567]”, the “gcPBM binding intensity (ln)” value came out at 9.18 ± 0.25. With “TTTTGACATTAACTTAAAAAATAAATAATTATAAAA [XGTACX_negctrl_site552]” the figure was 8 ± 0.34; with “TATATATATATAAGTGCACACTGAACCAAGAAAATT [CACACA_site5637]”, 9.17 ± 0.34; with “TATGTCTTGTTGTAAAATATTTATTAACAAATTGGC [CACACA_negctrl_site1452]”, 8.46 ± 0.32. On to “TTAAAGAATATTTTCACACATAAAAATTTTAATTTA [CACACA_site4290]”, for which the “gcPBM binding intensity (ln)” value was found to be 8.04 ± 0.53.

For the sequence “TTATAAAACACAAAATGTACAAAAAATTATAATTAA [XGTACX_site6859]”, the “gcPBM binding intensity (ln)” value was 8.65 ± 0.47. For “AATATTATTATCTTACCACACACAATCTACGAAAAG [CACACA_site8006]”, the “gcPBM binding intensity (ln)” value is 9.03 ± 0.33. In the case of “GCCTATATGTTTAGTTGTACTCCTAATATTATTTGT [XGTACX_site6060]” it was 9.06 ± 0.39.

With “CAAATTATTTCGAGGTGTACTTTTTTATATTATATT [XGTACX_site8309]”, the “gcPBM binding intensity (ln)” value came to 8.8 ± 0.4. With “CCTAATTTTTTTAGTTGTACTTTTTTTTTTTTTTAT [XGTACX_site7948]” the figure was 8.49 ± 0.54. With “TATATAAATGGACACACACACACCTTATAATTATTA [CACACA_site6093]” the figure was 10 ± 0.38; with “AATGTGTTCATATATGCACACGCATATATATTATTG [CACACA_site9274]”, 9.06 ± 0.35.

On to “TTTATAAATTGACACACACACATGTGAACATAAAAA [CACACA_site6978]”, for which the “gcPBM binding intensity (ln)” value was 9.37 ± 0.3.

Turning to “AATTATATATTATCATGTACAAATATAGTAATACAA [XGTACX_site6845]”, the “gcPBM binding intensity (ln)” value worked out at 8.71 ± 0.35. In the case of “AAAAAAAAAAAAAATAGTACGTAACTATAATTTCCT [XGTACX_site2457]” it was 8.63 ± 0.47; in that of “CTTATACTTCTACATCGTACAAAAGATGGTATAATT [XGTACX_site2698]”, 8.71 ± 0.28. Regarding “AAATTATAAGTAAAAAGTACTTAATATATAATAAAC [XGTACX_site6065]”, the “gcPBM binding intensity (ln)” value was 8.71 ± 0.53. “TAACTTAAATAATACATACACACATGTACATACAGA [CACACA_site1594]”: the “gcPBM binding intensity (ln)” value is 9.02 ± 0.42. In the case of TATAATTTTTTTTGGGTGCTTGGGTAAATTTTATTA it was 8.82 ± 0.3; in that of “CACGAAAAAAAAAAATGTACATAAAAATATGATACA [XGTACX_site2536]”, 8.71 ± 0.49; in that of “GAAAGAGAAATATATACACACATATTTATATTTTTA [CACACA_site2066]”, 8.78 ± 0.41. With “TCTCATTTCAACAACAGTACATATCTATCTGTGTAT [XGTACX_site6897]” the figure was 8.86 ± 0.4; with “AAAAAAAAAAAAAAAAAAAAAGGACGGATGGATGGA [GTGCAC_negctrl_site527]”, 8.87 ± 0.38; with “ATACGTATATAATATACATGCATATATAGCACATAC [TGCATGCA_site376]”, 9.1 ± 0.38.

On to “ATAAAAAAAAAAAAAAATGAAGCATCACCGTGTAAT [XGTACX_negctrl_site288]”, for which the “gcPBM binding intensity (ln)” value was found to be 8.71 ± 0.47.

Consider “TTTGTAATAACATATGCATGTTCAAAAAATAAAATA [TGCATGCA_site817]”, for which the “gcPBM binding intensity (ln)” value came to 8.52 ± 0.42. In the case of “ACGTTTTATTTTTATTGTACTCACATTGAAATGAAT [XGTACX_site6094]” it was 9.08 ± 0.42; in that of “ATTTTTTTATAAAATTTTTTATATATTAAATATTAT [CACACA_negctrl_site135]”, 8.36 ± 0.47. In the case of “AAAATTGTGCTTTCACGGACACAAGATCGAAATAGA [XGTACX_site4068]”, the “gcPBM binding intensity (ln)” value amounted to 8.88 ± 0.32.

Consider ATTTTTTTTGTAAAAGTGCATATATATATATATATA, for which the “gcPBM binding intensity (ln)” value was determined as 9.77 ± 0.13. “ATATATTTATACATTTGTACATATACATATTTCTGA [XGTACX_site3982]”: the “gcPBM binding intensity (ln)” value was found to be 8.84 ± 0.5.

Take “GAAACGTTTTTGAGTAGTACACACACAATAAGGATG [XGTACX_site6809]”: the “gcPBM binding intensity (ln)” value came to 9.31 ± 0.34. With “ATATAAATATAAACATGTACATATATATATATATAT [XGTACX_site2824]” the figure was 9.76. In the case of “AAATTTATATAAAACAGTACAATTAAAAAAAAAATA [XGTACX_site8015]”, the “gcPBM binding intensity (ln)” value turned out to be 8.64 ± 0.5. In the case of “ATATATATATATGTGTGTACTTATTTATTTATTTGT [XGTACX_site549]” it was 9.74 ± 0.18. Take “TTTTCTTAATATTTATGTATATATATAATATGATAT [TGCATGCA_negctrl_site572]”: the “gcPBM binding intensity (ln)” value worked out at 8.52 ± 0.49. For “TAATAAATCCTATATAGTACATATATGCAAGTATGT [XGTACX_site3955]”, the “gcPBM binding intensity (ln)” value was 8.94 ± 0.33. With “ATGTAACACATATTTGGTACAGATAGATAAAAGTAT [XGTACX_site8291]” the figure was 9.06 ± 0.49.
